In patent US20160326228A1 (ACCELERON PHARMA, published 2016) one finds Kd data, which are given here for one molecule.

Holding throughout (assay): Biacore; steady-state affinity fit
(In general: In SPR one partner is held on a chip, and binding of the other changes the refractive index at the surface.)

For experiment [1], the target named is T1, Activin A (UniProt P08476 311-426).
T1 construct: also called ActA
T1 sequence (looked up): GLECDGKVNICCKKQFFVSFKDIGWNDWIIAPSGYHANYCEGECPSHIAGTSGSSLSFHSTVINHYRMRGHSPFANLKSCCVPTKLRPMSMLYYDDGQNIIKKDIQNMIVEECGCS
The procedure:
(§1) The affinity of GDF Traps and other ActRIIB-hFc proteins for several ligands was evaluated in vitro with a BiacoreTM instrument. Kd values were obtained by steady-state affinity fit due to the very rapid association and dissociation of the complex, which prevented accurate determination of kₒₙ and koff.

The target of experiment [2] is T2, Growth and Differentiation Factor-11 (GDF11) (UniProt O95390 299-407).
T2 construct: also called BMP11
T2 sequence (looked up): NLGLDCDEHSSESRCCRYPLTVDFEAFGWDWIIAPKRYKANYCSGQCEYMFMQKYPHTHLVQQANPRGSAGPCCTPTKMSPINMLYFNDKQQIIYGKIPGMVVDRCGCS
How it is done: as §1

Experiment [3] has as its target T3, Activin B (UniProt P09529 293-407).
T3 sequence (looked up): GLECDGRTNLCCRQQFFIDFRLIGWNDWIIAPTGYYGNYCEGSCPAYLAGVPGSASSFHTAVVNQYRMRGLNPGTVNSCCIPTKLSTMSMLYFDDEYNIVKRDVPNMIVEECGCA
How it is done:
as §1

B1: ActRIIB(L79D 25-131)-hFc (Fc fusion)
chain: ETRECIYYNANWELERTNQSGLERCEGEQDKRLHCYASWRNSSGTIELVKKGCWDDDFNCYDRQECVATEENPQVYFCCCEGNFCNERFTHLPEAGGPEVTYEPPPTG[human IgG1 Fc and a few adjoining residues left out here]
notes: also called GDF Trap with truncated ActRIIB extracellular domain
Turning to B1, the values for the Kd in experiment [1], in experiment [2] and in experiment [3] were 22.9 nM, 0.074 nM and 0.621 nM, respectively.
